Reference: PubChem BioAssay AID485281 (National Center for Advancing Translational Sciences (NCATS), 2010)
The campaign covered roughly 350,000 compounds. About 260 (0.074%) were called active. This list was built around the results that the source calls inconclusive (neither active nor inactive); the mix of calls is not that of the screen. Calls come from the whole dose curve; as a rule, active = well fitted inhibition curve with a large enough effect; inconclusive = small, poorly fitted or top-dose-only effect; inactive = no such curve, though single readings can be large or run the other way. Potencies of inconclusive entries are doubtful fits and often do not repeat.

molecular target: Ferritin light chain (Equus caballus) (UniProt P02791); assay: qHTS Assay for Identification of Novel General Anesthetics; conditions: apoferritin/1-aminoanthracene competitive binding, fluorescence; activity change, negative = displacement: at 77.5 µM (top of the series); note: nearly all actives have a fitted effect of over 20% in size
UniProt P02791, sequence (P02791 whole entry, looked up): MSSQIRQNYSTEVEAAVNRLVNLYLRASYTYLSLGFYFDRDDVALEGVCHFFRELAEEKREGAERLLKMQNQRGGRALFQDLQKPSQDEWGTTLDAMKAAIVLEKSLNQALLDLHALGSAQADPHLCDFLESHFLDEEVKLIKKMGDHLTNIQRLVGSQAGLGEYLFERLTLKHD
In short: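 Probe: 1-aminoanthracene (50% saturated, PBS). Protein: horse-spleen apoferritin, 10 uM. Incubation: 10 min, room temperature. Detection: 380 nm excitation, 535 nm emission. Analysis: normalized response, four-parameter Hill.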
% is set by controls: 0 for no effect and ±100 for the full control effect; potency is the fitted concentration of half-maximal effect; tags give direction and shape of the fitted curve.

`CC1CCCN(c2ccc(C(=O)Nc3cccnc3)cc2[N+](=O)[O-])C1` (stereo not drawn) was tested. Which Potency did it give?
Its Potency is inconclusive: 39.8 µM [inhibitor, single point].

`CCOc1cc(S(=O)(=O)N(CC)CC)ccc1F` was tested. Which Potency did it give?
Its Potency is inconclusive: 39.8 µM [inhibitor, partial curve].

`CCCCOc1ccc(C(=O)NNC(=O)C2C3CCC(C3)C2C(=O)O)cc1` (stereo not drawn) was tested. Which Potency did it give?
Its Potency is inconclusive: 22.4 µM [inhibitor, partial curve].

Which Potency does the source give for `CC(O)CN=c1cc(-c2ccccc2)oc2ccc(Cl)cc12` (stereo not drawn) here?
Its Potency is inconclusive: 28.2 µM [inhibitor, partial curve].

For `CC1CCC2(CC1)NC(=O)N(CC(=O)NCc1ccc3c(c1)OCO3)C2=O` (stereo not drawn), which Potency is on record?
The Potency was inconclusive: 28.2 µM [inhibitor, single point].

For `CN1CCCc2cc(C=O)ccc21`, which “activity change, negative = displacement” value is on record?
Its value is inactive: -11.5%.

`CCc1nnc(NC(=O)c2nc(SCc3cccc(C)c3)ncc2Cl)s1` was tested. Which Potency did it give?
The Potency was inconclusive: 12.6 µM [inhibitor, partial curve].

For `CC(Nc1oc(-c2ccc(COc3ccccc3)o2)nc1C#N)c1ccccc1` (stereo not drawn), which “activity change, negative = displacement” value is on record?
The value was inactive: 51.2%.

For `CCNC(=O)Cc1ccc(NS(=O)(=O)c2ccc(F)cc2)cc1`, which Potency is on record?
Its Potency is inconclusive: 14.1 µM [inhibitor, partial curve].

Which Potency does the source give for `COc1ccc(CC2(C)OC(c3ccc(C)c([N+](=O)[O-])c3)=NN2C(C)=O)cc1` (stereo not drawn) here?
The Potency was inconclusive: 28.2 µM [inhibitor, single point].

`COc1ccc(NC(=O)c2nn(C)c3c2CS(=O)(=O)c2ccccc2-3)cc1` was tested. Which “activity change, negative = displacement” value did it give?
The value was inactive: -13.1%.

`CCOC(=O)c1c(CN(C)C)n(-c2ccc(C)cc2)c2cc(Br)c(O)cc12` was tested. Which Potency did it give?
Its Potency is inconclusive: 50.1 µM [inhibitor, single point].

Which Potency does the source give for `Cc1ccc(C(=O)N2CCCc3ccccc32)c(F)c1F` here?
The Potency was inconclusive: 3.98 µM [inhibitor, partial curve, poor fit].

For `CCCc1cc(C(=O)Nc2ccc(C(=O)c3ccc(C)cc3)cc2)n(C)n1`, which Potency is on record?
The Potency was inconclusive: 12.6 µM [inhibitor, partial curve].

Which Potency does the source give for `COC(=O)c1ccc(CSc2nnc(SCc3ccc(C(=O)OC)o3)s2)o1` here?
The Potency was inconclusive: 50.1 µM [inhibitor, single point].

For `Cc1ccc(Oc2ccc(Cl)cc2N)cc1`, which Potency is on record?
Its Potency is inconclusive: 15.8 µM [inhibitor, partial curve].

How did the Potency turn out when `Cc1ccc(OC(C)C(=O)N=Nc2c(O)[nH]c3ccc([N+](=O)[O-])cc23)cc1` (stereo not drawn) was run?
Its Potency is inconclusive: 35.5 µM [inhibitor, partial curve].

`O=C(c1cncc(Br)c1)N1CCN(S(=O)(=O)c2ccccc2C(F)(F)F)CC1` was tested. Which “activity change, negative = displacement” value did it give?
The value was inactive: -3.67%.

`COc1cccc(NC(=O)/C=C/c2ccc([N+](=O)[O-])cc2)c1` was tested. Which “activity change, negative = displacement” value did it give?
Its value is inactive: 0.448%.

`Cc1ccc(N=C2C(=O)Nc3ccccc32)cc1` was tested. Which “activity change, negative = displacement” value did it give?
Its value is inactive: 1.43%.

Which Potency does the source give for `O=C(COc1ccc(Cl)cc1)OCc1cc(=O)n2nc(C3CCCCC3)sc2n1` here?
The Potency was inconclusive: 17.8 µM [inhibitor, partial curve].

With `CCOc1cccc(NC(=O)C2CC(=O)N(C)C(=Nc3ccccc3)S2)c1` (stereo not drawn) as the compound, how does the Potency read?
The Potency was inconclusive: 39.8 µM [inhibitor, single point].

For `C=CCn1c(CNC(=O)c2ccco2)nnc1SCC(=O)N1c2ccccc2Sc2ccccc21`, which Potency is on record?
Its Potency is inconclusive: 15.8 µM [inhibitor, partial curve].

`COC(=O)c1cc(C(=O)NC(C)(C)CC(C)(C)C)cc([N+](=O)[O-])c1` was tested. Which Potency did it give?
Its Potency is inconclusive: 15.8 µM [inhibitor, partial curve].

For `COc1ccc([C@]23Cc4cc(OC)c(OC)cc4C(O2)C2=C(CC(C)(C)CC2=O)O3)cc1`, which Potency is on record?
Its Potency is inconclusive: 3.98 µM [inhibitor, partial curve].

Which “activity change, negative = displacement” value does the source give for `COc1ccc(CNC(=O)Cn2cccc2C(=O)c2ccccc2)cc1` here?
Its value is inactive: 2.05%.

Which “activity change, negative = displacement” value does the source give for `C[C@]12CC[C@@H]3c4ccc(O)cc4CC[C@H]3[C@@H]1CC[C@H]2O` here?
The value was inactive: 2.75%.

Which Potency does the source give for `Cc1ccc(C(=O)NNC(=O)c2cc(OCC(F)(F)F)ccc2OCC(F)(F)F)cc1` here?
The Potency was inconclusive: 39.8 µM [inhibitor, single point].

With `Cc1c(C(=O)Nc2c(F)cccc2F)sc2ncn(Cc3ccccc3F)c(=O)c12` as the compound, how does the Potency read?
The Potency was inconclusive: 25.1 µM [inhibitor, partial curve].

Which Potency does the source give for `O=C(COc1ccccc1Cl)c1ccc[nH]1` here?
Its Potency is inconclusive: 35.5 µM [inhibitor, single point].

Which “activity change, negative = displacement” value does the source give for `Cc1ccc(C[C@H](C(=O)O)N2C(=O)c3ccc(C(=O)O)cc3C2=O)cc1` here?
The value was inactive: 1.06%.

Which Potency does the source give for `COc1ccc(CC(=O)Nc2ccc(S(=O)(=O)N3CCCCC3)cc2)cc1OC` here?
The Potency was inconclusive: 14.1 µM [inhibitor, partial curve].

`Cc1ccc(NC(=O)c2cccs2)cc1NC(=O)c1cccc(F)c1` was tested. Which Potency did it give?
The Potency was inconclusive: 25.1 µM [inhibitor, partial curve].

Which Potency does the source give for `COc1cc2c(C(=O)N(C)c3cccc(C(F)(F)F)c3)cn(CC(C)C)c(=O)c2cc1OC` here?
The Potency was inconclusive: 50.1 µM [inhibitor, single point].

With `O=C1N=C(N2CCN(c3ccccc3)CC2)SC1Cc1ccccc1` (stereo not drawn) as the compound, how does the Potency read?
The Potency was inconclusive: 25.1 µM [inhibitor, single point].

`COC(=O)c1ccc(C2N=C(c3cccs3)CC(c3ccccc3O)N2)cc1` (stereo not drawn) was tested. Which Potency did it give?
The Potency was inconclusive: 25.1 µM [inhibitor, single point].

Which Potency does the source give for `O=C(N/N=C/c1ccc(O)cc1)c1cc(C23CC4CC(CC(C4)C2)C3)[nH]n1` here?
Its Potency is inconclusive: 39.8 µM [inhibitor, single point].

With `CN(C)c1nnnn1-c1ccc(Oc2ncc(C(F)(F)F)cc2Cl)cc1` as the compound, how does the Potency read?
The Potency was inconclusive: 31.6 µM [inhibitor, partial curve].

With `COc1cc(NC(=O)CCC(=O)O)nc(OC)n1` as the compound, how does the “activity change, negative = displacement” value read?
Its value is inactive: -6.33%.

For `O=[N+]([O-])c1nn(-c2ccc(Cl)cc2)n(O)c1=NCc1ccccc1`, which Potency is on record?
The Potency was inconclusive: 31.6 µM [inhibitor, single point].

`OCC1(CCc2ccccc2)CCCN(C/C=C/c2ccccc2)C1` (stereo not drawn) was tested. Which Potency did it give?
Its Potency is inconclusive: 39.8 µM [inhibitor, single point].

`Cc1cccc2cc3c(N)c(C#N)sc3nc12` was tested. Which Potency did it give?
The Potency was inconclusive: 31.6 µM [inhibitor, single point].

For `COc1cc2c(C(=O)N3CCN(c4ccccc4C)CC3)c(C)oc2cc1Br`, which Potency is on record?
Its Potency is inconclusive: 3.55 µM [inhibitor, single point].

`COC(=O)c1cc(NS(=O)(=O)c2ccc(N3CCC(C)CC3)c([N+](=O)[O-])c2)cc(C(=O)OC)c1` was tested. Which Potency did it give?
Its Potency is inconclusive: 28.2 µM [inhibitor, partial curve, poor fit].

For `C=CCNC(=O)c1ccccc1NC(=O)COc1ccccc1`, which “activity change, negative = displacement” value is on record?
Its value is inactive: -10.4%.

How did the Potency turn out when `Cc1ccccc1C(=O)N1CCC(C(=O)Nc2ccc(S(=O)(=O)N(C)C(C)C)cc2)CC1` was run?
Its Potency is inconclusive: 28.2 µM [inhibitor, partial curve].

With `COC(=O)C1=CO[C@@H](C)[C@@H]2CN3CCc4c([nH]c5ccccc45)[C@@H]3C[C@H]12` as the compound, how does the “activity change, negative = displacement” value read?
The value was inactive: -8.78%.

With `CCn1c(-c2ccccc2)c(C(=O)CC#N)c2ccccc21` as the compound, how does the Potency read?
Its Potency is inconclusive: 22.4 µM [inhibitor, partial curve].

`Nc1c(S(=O)(=O)c2cccc(Cl)c2)c2nc3ccccc3nc2n1/N=C/c1ccc(O)c(O)c1` was tested. Which Potency did it give?
Its Potency is inconclusive: 11.2 µM [inhibitor, partial curve].

With `Cc1ccc(OCc2cc(C(=O)N(CCO)Cc3cccs3)no2)cc1C` as the compound, how does the Potency read?
The Potency was inconclusive: 35.5 µM [inhibitor, partial curve].

How did the Potency turn out when `Cc1cc(C(F)(F)F)n(-c2ccc(N)cc2)n1` was run?
Its Potency is inconclusive: 12.6 µM [inhibitor, partial curve].

`COc1ccc(NCc2ccc([N+](=O)[O-])s2)cc1` was tested. Which Potency did it give?
The Potency was inconclusive: 39.8 µM [inhibitor, partial curve].

Which Potency does the source give for `Cc1cc2cc(C(c3nnnn3Cc3ccccc3)N3CCc4ccccc43)c(=O)[nH]c2cc1C` (stereo not drawn) here?
Its Potency is inconclusive: 12.6 µM [inhibitor, partial curve].

For `N#Cc1c(N)n(C2CCCCC2)c2nc3ccccc3nc12`, which “activity change, negative = displacement” value is on record?
Its value is inactive: 115%.

Which Potency does the source give for `CC(=O)c1ccc2c3c(ccc(O)c13)CC2` here?
The Potency was inconclusive: 31.6 µM [inhibitor, partial curve].

With `COC(=O)C1CCN(C(=O)COc2ccc(Cl)cc2)CC1` as the compound, how does the “activity change, negative = displacement” value read?
The value was inactive: 6.39%.

For `COc1cc(CNc2ccc(NC(C)=O)cc2)ccc1OCc1ccccc1C`, which Potency is on record?
Its Potency is inconclusive: 14.1 µM [inhibitor, partial curve].

For `N/C(Cc1cccc2ccccc12)=N\OC(=O)c1ccccc1F`, which “activity change, negative = displacement” value is on record?
The value was inactive: -9.7%.

With `O=C(Cc1ccc(-c2ccccc2)cc1)NCCS(=O)(=O)N1CCN(c2ccccc2F)CC1` as the compound, how does the “activity change, negative = displacement” value read?
The value was inactive: 8.86%.

How did the Potency turn out when `CCn1c(SCC(=O)OC2CCCCC2)nnc1-c1ccncc1` was run?
Its Potency is inconclusive: 31.6 µM [inhibitor, partial curve].

How did the Potency turn out when `CCOc1ccc2nc(NC3=NC(C)(C)C=C(C)N3)nc(C)c2c1` was run?
The Potency was inconclusive: 20 µM [inhibitor, partial curve].

With `Cc1ccc(CNC(=O)C2CC(c3cccc([N+](=O)[O-])c3)=NO2)cc1` (stereo not drawn) as the compound, how does the Potency read?
Its Potency is inconclusive: 44.7 µM [inhibitor, partial curve].

For `COc1ccc(C2c3ccc4ccccc4c3Oc3ncn(CCO)c(=N)c32)cc1OC` (stereo not drawn), which “activity change, negative = displacement” value is on record?
The value was inactive: -16.2%.

How did the Potency turn out when `O=S(=O)(NC1CCCCCCC1)c1ccccc1F` was run?
Its Potency is inconclusive: 39.8 µM [inhibitor, partial curve].

Which “activity change, negative = displacement” value does the source give for `COc1cccc(Nc2nc(CC(C)=O)ns2)c1` here?
The value was inactive: -18.8%.

For `CCc1ccc(NC(=O)c2cc(=O)c3ccc(C)c(C)c3o2)cc1`, which Potency is on record?
Its Potency is inconclusive: 11.2 µM [inhibitor, partial curve].

How did the “activity change, negative = displacement” value turn out when `CCCCOc1cccc(C2c3c(-c4cc(C)ccc4O)n[nH]c3C(=O)N2CCOC)c1` (stereo not drawn) was run?
The value was inactive: -2.89%.

For `O=[N+]([O-])c1ccccc1/C=N/Nc1nc(N2CCCC2)nc(N2CCCC2)n1`, which Potency is on record?
The Potency was inconclusive: 35.5 µM [inhibitor, partial curve].
